The campaign covered roughly 390,000 compounds. About 2,200 (0.56%) were called active. The shares of active, inactive and inconclusive entries below differ from those in the screen. Calls follow the shape of the dose curve; as a rule, active = well fitted inhibition curve with a large enough effect; inconclusive = small, poorly fitted or top-dose-only effect; inactive = no such curve, though single readings can be large or run the other way. Potencies beside an inconclusive call are fits to weak or partial responses and may not hold up.
Molecular target: Chromobox protein homolog 1 (Homo sapiens) (UniProt P83916)
Sequence of UniProt P83916 (P83916 whole entry, looked up): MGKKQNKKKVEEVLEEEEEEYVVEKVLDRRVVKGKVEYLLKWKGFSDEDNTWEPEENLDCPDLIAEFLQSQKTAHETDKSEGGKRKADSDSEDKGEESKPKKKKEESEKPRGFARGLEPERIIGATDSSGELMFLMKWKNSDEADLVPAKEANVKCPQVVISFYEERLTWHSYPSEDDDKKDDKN
Assay: HTS for Inhibitors of HP1-beta Chromodomain Interactions with Methylated Histone Tails; also: nearly all actives have a fitted effect of over 70% in size
Conditions: AlphaScreen HP1-beta / biotin-H3K9me3 peptide binding; series mostly up to 114 µM
Summary of the method: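 HP1-beta protein (50 nM final) preincubated 30 min at room temperature with biotinylated H3(1-18)K9me3 peptide (50 nM) in PBS pH 7.4, 0.01% Tween-20, then compound added for 30 min. AlphaScreen streptavidin donor/nickel chelate acceptor beads (10 ug/mL final), 30 min dark, luminescence read.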
Potency is read from the fitted curve at half-maximal effect; tags tell the direction and shape of the fitted curve.

Row | SMILES | Potency
1 | COc1ccc(Nc2nc(-c3sc(N)nc3C)cs2)cc1 | inconclusive: 17.8 µM [inhibitor, full curve]
2 | O=C1c2ccccc2C(Nc2ccc3c(c2)OCO3)N1Cc1ccco1 (centres undefined) | inconclusive: 50.1 µM [inhibitor, partial curve]
3 | CC(=NNC(=S)N1CCN(c2ccccn2)CC1)c1ccccn1 | inconclusive: 12.6 µM [inhibitor, full curve]
4 | CN(CC(=O)Nc1c(Cl)cccc1Cl)C(=O)c1cccc(-n2cccc2)c1 | active: 31.6 µM
5 | COc1cccc(CNC(=O)CN2C(=O)COc3ccc(S(=O)(=O)N4CCCCCC4)cc32)c1 | inactive
6 | CCOC(=O)CNC(=O)CSc1nc(-c2ccc(OC)cc2)ns1 | inconclusive: 31.6 µM [inhibitor, full curve]
7 | COc1ccccc1NS(=O)(=O)c1cc([N+](=O)[O-])ccc1N/N=C/c1c[nH]c2ccccc12 | inconclusive: 15.8 µM [inhibitor, partial curve, poor fit]
8 | Cc1ccccc1S(=O)(=O)Cc1ccc(C(=O)NCCCN2CCN(C)CC2)o1 | inconclusive: 31.6 µM [inhibitor, single point]
9 | Cc1cnc(C(=O)OCC(=O)c2c[nH]c3ccccc23)cn1 | inactive
10 | Cn1c(CNc2nc(-c3ccccc3)cs2)nnc1SCC(=O)OC1CCCCC1 | inconclusive: 70.8 µM [inhibitor, partial curve, poor fit]
11 | COc1ccc(S(=O)(=O)NCCC(=O)NC2CCCCC2C)cc1[N+](=O)[O-] (centres undefined) | inconclusive: 70.8 µM [inhibitor, single point]
12 | COc1ccc(NC(=O)COC(=O)CCNC(=O)c2ccco2)cc1Cl | inactive
13 | CC(C)[C@H]1CN=C2N(CCNC(=O)CCC3CCCCC3)[C@H](Cc3ccc(O)cc3)CN21 | inactive
14 | C=CCNc1oc(-c2cccc(F)c2)nc1C#N | inconclusive: 14.1 µM [inhibitor, full curve]
15 | O=c1[nH]c(CSc2ncc(-c3ccc(F)cc3)n2Cc2ccco2)nc2ccccc12 | inconclusive: 35.5 µM [inhibitor, single point]
16 | CCOC(=O)c1cc(-c2ccc(F)cc2)n(CCC(=O)NCc2ccccc2OC)c1C | inconclusive: 50.1 µM [inhibitor, partial curve, poor fit]
17 | COc1ccc(NC(=O)Cc2ccsc2)cc1S(=O)(=O)N1CCCCC1 | inconclusive: 28.2 µM [inhibitor, single point]
18 | CC(C)(C)c1ccccc1OCCCCCNCCO | inconclusive: 70.8 µM [inhibitor, partial curve]
19 | CC1=NOC(=O)/C1=C\c1ccc(-c2cc(Cl)ccc2Cl)o1 | inconclusive: 35.5 µM [inhibitor, partial curve, poor fit]
20 | Cc1ccc(NC(=S)NNC(=S)Nc2cccc(C(F)(F)F)c2)cc1 | inconclusive: 3.16 µM [inhibitor, full curve, poor fit]
21 | COc1ccc(-c2csc(N(CCCN(C)C)C(=O)c3ccccc3C)n2)cc1 | inconclusive: 50.1 µM [inhibitor, partial curve]
22 | CCC(C)c1ccc(C(C)NC(=S)NCc2ccc(F)cc2)cc1 (centres undefined) | inactive

Row | SMILES | Potency
23 | COc1cc2c(cc1OC)CN(C(=O)c1cccc([N+](=O)[O-])c1)CC2 | inactive
24 | CCN(CC)c1ccc(NC(=O)c2cc3c(=O)n4cccc(C)c4nc3n2C)c(C)c1 | inactive
25 | COc1ccc(/C=C/c2nc3ccccc3c(=O)n2-c2cccc(C(F)(F)F)c2)cc1 | inactive
26 | Cn1nc(C(F)(F)F)c(C#N)c1N1CCN(c2ccccc2)CC1 | inactive
27 | CCCc1cc(C(=O)OCC(=O)N2CCN(c3ccc(OC)cc3)CC2)sc1C | inconclusive: 15.8 µM [inhibitor, partial curve, poor fit]
28 | N#Cc1cc2c([nH]c1=S)CCCCCC2 | inconclusive: 17.8 µM [inhibitor, full curve]
29 | CO/N=C/c1ccc(Sc2ccc(C)cc2)c([N+](=O)[O-])c1 | inconclusive: 44.7 µM [inhibitor, partial curve]
30 | O=C(CN1CCCc2ccccc21)Nc1ccccc1[N+](=O)[O-] | inconclusive: 50.1 µM [inhibitor, partial curve, poor fit]
31 | CC(C)N(C1=CC(=O)OC12CCCCC2)C(C)C | inactive
32 | Cc1ccc(C2(CC(=O)Nc3nccs3)CCOC(C(C)C)C2)cc1 (centres undefined) | inconclusive: 39.8 µM [inhibitor, single point]
33 | CC(C)=CCc1c2c(c3occ(-c4ccc(O)c(O)c4)c(=O)c3c1O)C=CC(C)(C)O2 | inconclusive: 15.8 µM [inhibitor, partial curve, poor fit]
34 | Cc1cccnc1NC(=S)NC(=O)c1oc2ccccc2c1C | inactive
35 | COc1cc(C2C3=C(CC(C)(C)CC3=O)NC3=C2C(=O)c2ccccc23)ccc1O (centres undefined) | inconclusive: 44.7 µM [inhibitor, partial curve]
36 | O=C(CCc1ccc(Oc2cc([N+](=O)[O-])cc([N+](=O)[O-])c2)cc1)Nc1cccc(Cl)c1 | inconclusive: 28.2 µM [inhibitor, partial curve, poor fit]
37 | COC(=O)c1[nH]c2ccccc2c1NC(=O)Oc1ccccc1 | inactive
38 | CCCCC(=O)NC(c1ccccc1Cl)c1ccc2cccnc2c1O (centres undefined) | inactive
39 | COc1cc(NC(=O)CC(C)n2ccnc2)cc(OC)c1 (centres undefined) | inactive
40 | COc1cccc(N2CCN(C(=O)CCNS(=O)(=O)c3ccc4c(c3)c(=O)n(C)c(=O)n4C)CC2)c1 | inactive
41 | O=C(c1ccc2ccccc2c1)N1CCN(c2ccc(O)cc2)CC1 | inconclusive: 50.1 µM [inhibitor, partial curve, poor fit]
42 | COc1ccc(/C=C/C(=O)c2ccc(NS(=O)(=O)c3ccc(C)cc3)cc2)cc1O | inconclusive: 50.1 µM [inhibitor, partial curve]
43 | Cn1c(=O)n(CCc2ccccc2)c(=O)c2c1nc1n2CCCN1CCc1ccccc1 | inconclusive: 22.4 µM [inhibitor, partial curve, poor fit]
44 | CN(C)c1ccc(/C=N/N2CCN(Cc3ccccc3Cl)CC2)cc1 | inconclusive: 12.6 µM [inhibitor, full curve, poor fit]

Source: PubChem BioAssay AID540317 (National Center for Advancing Translational Sciences (NCATS), 2011)
